From PubChem BioAssay AID1508642 (National Center for Advancing Translational Sciences (NCATS), 2021)
About 200 (0.47%) of roughly 43,000 compounds were called active. Roughly 12% stayed inconclusive and do not appear here. The call rests on the fitted dose curve; in most records, active means well fitted cell-killing curve with a large enough effect; inconclusive means small, poorly fitted or top-dose-only effect, or effect the other way; inactive means flat fitted curve, though single readings scatter. This is one part of the list.

assay: Cell viability qHTS assay in S16 Pmp22-F2sN cells; conditions: S16 Pmp22-F2sN Schwann cells viability, CellTiter-Glo, 24 h; series mostly up to 57.5 µM; activity change, negative = cytotoxicity: at the top concentration; further: nearly all actives have a fitted effect of over 65% in size
How it was run: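 S16 Pmp22-F2sN Schwann cells (500-1,000/well) in phenol-red-free DMEM with 10% FBS received 23 nL compound by pin tool for 24 h at 37 °C. Viability was then read as CellTiter-Glo luminescence after 15 min at room temperature.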
On the % scale 0 is the no-effect control and ±100 the full control effect.

Row | SMILES | activity change, negative = cytotoxicity
1 | CCC(=O)N1c2ccccc2CC1C(=O)NCc1ccccc1C (stereo not drawn) | inactive: -9.38%
2 | COCCCNC(=O)c1cc2n(n1)CCCN(Cc1ccc(C)cc1)C2=O | inactive: -4.97%
3 | Cc1ccc(C)c(NS(=O)(=O)c2ccc3c4c(cccc24)C(=O)N3)c1 | inactive: -17.7%
4 | COc1cccc(Cn2nnc3c(=O)[nH]c(C4CCCN(C(=O)c5ccc(C)cc5)C4)nc32)c1 (stereo not drawn) | inactive: -23.1%
5 | CS(=O)(=O)c1ncc(N(Cc2ccco2)Cc2ccco2)c(C(=O)Nc2ccccc2Br)n1 | inactive: -8.66%
6 | Cc1ccc(-n2ncc(C(=O)NC3CCCC3)c2C2CCN(C(=O)OC(C)(C)C)CC2)c(C)c1 | inactive: -10.5%
7 | CC1=C(C(=O)OCc2ccc(C)cc2)C(c2c(Cl)cccc2Cl)CC(=O)N1 (stereo not drawn) | inactive: 16%
8 | COc1ccc(OC)c(Nc2nc3ccccc3n3c(C)nnc23)c1 | inactive: 4.32%
9 | CCOc1ccccc1NC(=O)CC1C(=O)NCCN1C(=O)c1ccc(F)cc1 (stereo not drawn) | inactive: 1.45%
10 | COc1ccc(COC(=O)c2[nH]c3c(c2C)C(=O)CC(c2ccc(OC)c(OC)c2)C3)cc1 (stereo not drawn) | inactive: -2.87%
11 | C#CC(C)(CC)NC(=O)Cn1nnc(-c2ccc(OCc3ccccc3F)cc2)n1 (stereo not drawn) | inactive: -5.04%
12 | Cc1cc(NC(=O)c2ccc(-c3ccc(Cl)cc3)o2)cc(-c2nc3ncccc3o2)c1O | inactive: 20.5%
13 | Cc1ccc(CNC(=O)c2cnc(N(C)C)nc2)cc1 | inactive: 7.01%
14 | CCCCN(C)CCNC(=O)c1cc(=O)[nH]c2ccc(S(=O)(=O)N3CCCCCC3)cc12 | inactive: -1.12%
15 | Cc1ccc(NC(=O)c2ncn(-c3ccccc3)n2)cc1Cl | inactive: -7.01%
16 | COc1ccc(NC(=O)c2oc3ccccc3c2NC(=O)c2cc(=O)c3c(C)cc(C)cc3o2)cc1 | inactive: -0.439%
17 | Cc1nc(-n2nc(C)c(Cc3ccccc3Cl)c2C)sc1C(=O)N1CCCCC1C (stereo not drawn) | inactive: -8.77%
18 | COc1ccc(-c2nc(C(=O)Nc3cccc(C(C)=O)c3)nn2-c2ccc(Cl)cc2)cc1 | inactive: 4.57%
19 | Cc1cc(NC(=O)CCCn2c(C)c3cnn(-c4ccccc4)c(=O)c3c2C)ccc1Br | inactive: -6.09%
20 | Cc1cc(C)cc(C(=O)N(Cc2nc(-c3ccc(Cl)cc3)no2)C(C)C)c1 | inactive: -17%
21 | CCOc1ccccc1NC(=O)CN1C(=O)CC(c2ccco2)Sc2ccccc21 (stereo not drawn) | inactive: 0.213%
22 | O=S(=O)(c1ccc2ccccc2c1)n1nc(-c2ccco2)nc1NCc1ccc(F)cc1 | inactive: 6.01%
23 | COCCNC(=O)C(=O)NCC(c1ccc2c(c1)OCO2)N1CCOCC1 (stereo not drawn) | inactive: 0.394%
24 | COC(=O)c1ccc(OCC(O)Cn2cnc3cc(C)c(C)cc32)cc1 (stereo not drawn) | inactive: 6.98%

Row | SMILES | activity change, negative = cytotoxicity
25 | CCN(C(=O)CSc1ncc(S(=O)(=O)c2ccc(C)c(Cl)c2)c(=O)[nH]1)c1cccc(C)c1 | inactive: -3.65%
26 | CC(=O)c1cccc(S(=O)(=O)NCCc2csc3nc(-c4ccc(F)cc4)nn23)c1 | inactive: -16.9%
27 | Cc1nc(CC(=O)Nc2cccc(C)c2C)cs1 | inactive: 3.24%
28 | CC(C)c1ccc(S(=O)(=O)c2nnn3c2nc(NC2CCCC2)c2sccc23)cc1 | inactive: -1.72%
29 | Cc1ccc(CSCC(=O)N2CCN(c3ccc(F)cc3)CC2)cc1 | inactive: -3.1%
30 | Cc1ccc2c(=O)cc(CSc3ccccc3)[nH]c2c1C | inactive: -12.4%
31 | COc1ccc(C(=O)NCc2ccc3c(c2)CCN3C(=O)c2ccncc2)cc1 | inactive: -25.9%
32 | CN1c2ccccc2-c2nc(SCC(=O)Nc3ccccc3C(F)(F)F)ncc2S1(=O)=O | inactive: -4.12%
33 | COc1ccc2c(c1)-c1nc(NC(=O)c3cc(Cl)ccc3OC)sc1CC2 | inactive: -2.86%
34 | Cc1ccc(CN2CCCn3nc(C(=O)NCCc4ccc(Cl)cc4)cc3C2=O)cc1 | inactive: -8.13%
35 | COc1ccccc1CNC(=O)CCn1c(=O)c2ccccc2n(CC(=O)Nc2ccc(C)cc2C)c1=O | inactive: -4.58%
36 | CCN(Cc1ccccc1)C(=O)Cn1c(=O)n(Cc2ccccc2)c(=O)c2c1c1cc(OC)ccc1n2C | inactive: 24.1%
37 | COc1ccc(C(CC(=O)Nc2ccc(C)c(C)c2)N2Cc3ccccc3C2=O)cc1OC (stereo not drawn) | inactive: 2.98%
38 | Cc1ccc(CSc2nc3ccc(NC(=O)C(C)C)cc3s2)cc1 | inactive: 3.85%
39 | CCOC(=O)C1=C(CS(=O)(=O)c2ccc(Br)cc2)NC(=O)NC1c1ccccc1 (stereo not drawn) | inactive: -4.54%
40 | Cc1ccccc1CNC(=O)c1ccc(-c2nc(CS(=O)(=O)c3ccccc3)c(C)o2)cc1 | inactive: -14.2%
41 | COC(=O)c1cc(NC(=O)Cn2nc(C)n3cccc3c2=O)cc(C(=O)OC)c1 | inactive: 17.3%
42 | Cc1ccc(-c2c(C(=O)NCc3ccccc3)oc(=O)c3ccccc23)cc1 | inactive: 3.53%
43 | COc1cc(NC(=O)c2cc(Cl)c(OC)c(Cl)c2)ccc1NC(=O)c1cc2ccccc2o1 | inactive: 3.09%
44 | CC(=O)c1c(C)oc2ccc(N(C(=O)Oc3ccccc3)S(=O)(=O)c3ccc(C(C)(C)C)cc3)cc12 | inactive: 2.35%
45 | CCc1cccc(C)c1NC(=O)c1cc(C)nc2c1c(C)nn2-c1cccc(Cl)c1C | inactive: -2.35%
46 | COc1ccc(C)cc1NC(=O)CN(c1cc(C(F)(F)F)ccc1Cl)S(C)(=O)=O | inactive: 25.8%
47 | C=CCc1cccc2cc(C(=O)Nc3cccc(Cl)c3)c(=O)oc12 | inactive: 7.79%
48 | CCOC(=O)c1sc2ccccc2c1S(=O)(=O)Nc1cccc(C(F)(F)F)c1 | inactive: -3.9%
